Experimental data: patent US10857112B2, “Small molecule inhibitors of RNA binding motif (RBM) proteins for the treatment of acute cellular injury” (University of Pittsburgh—Of the Commonwealth System of …, priority 2012, dated 2020)

System: caspase 3/7
Experiment: H2O2-induced caspase 3/7 activity (Caspase3/7-GLO)
Type: cell-based, rat
Details: 40 μM H2O2

Compound	H2O2-induced caspase 3/7 activity (5 μM)	H2O2-induced caspase 3/7 activity (25 μM and 50 μM)	H2O2-induced caspase 3/7 activity (75 μM)	H2O2-induced caspase 3/7 activity (5, 25 and 50 μM, compared to control injury)
O=C1c2ccccc2C(=O)c2cc(S(=O)(=O)O)ccc21 [AQ2S, anthraquinone-2-sulfonic acid]	not at the lowest 5 μM concentration	inhibited caspase 3/7 activity	significantly inhibited caspase 3/7 activity below injured and non-injured levels	
Cc1cc(O)c2c(c1)C(=O)c1cc(O)cc(O)c1C2=O [emodin, 6-methyl-1,3,8-trihydroxyanthraquinone]				significantly reduced caspase activity at all 3 concentrations
